From patent US8304419B2, “Chemical compounds” (priority 2007, dated 2012) come the findings set out here.

Assay in all cases: microbe, parasite or virus in culture
The subject of one assay is HIV-1 K103N RT mutant. As to conditions: Human immunodeficiency virus 1, HeLa, read-out: K103N activity level, HeLa-CD4-LTR-β-gal cells, K103N virus. The text has this: (§1) The HeLa cell assay described herein is a modified version of Kimpton J. and Emerman M., Detection of replication-competent and pseudotyped human immunodeficiency virus with a sensitive cell line on the basis of activation of an integrated β-galactosidase gene, J. Virol. 66:2232-2239 (1992), in which HIV-1 infection is detected by the activation of an HIV-LTR driven β-galactosidase reporter that is integrated into the genome of a CD4+ HeLa cell line. Quantitation of β-galactosidase is achieved by measuring the activation of a chemiluminescent substrate (Applied Biosystems). The concentration of each compound required to inhibit 50% (IC50) of the HIV-1 induced β-galactosidase signal, relative to untreated controls, is determined for each isogenic, recombinant virus.
(§2) HeLa-CD4-LTR-β-gal cells are propagated in DMEM containing 10% fetal bovine serum+0.2 mg/ml geneticin+0.1 mg/ml hygromycin B. Cells are split by standard trypsinization when confluency reaches 80% (roughly every 2 to 3 days).
(§3) DNA encoding the HIV-1 reverse transcriptase is subcloned from a M13 phage into a general shuttle vector, pBCSK+, as a −1.65 kbp EcoRI/HindIII ended DNA fragment. The HIV DNA insert of the resulting plasmid, is completely sequenced on both strands prior to use in site directed mutagenesis experiments. Specific amino acid replacements are made using Stratagene Quick Change reagents and mutagenic oligonucleotides. The mutations that are made include K103N, V106A, Y181C, and Y188L. Following mutagenesis, the entire mutant RT coding sequence is verified by sequencing both DNA strands.
(§4) K103N, V106A, Y181C, and Y188L mutant HIV-1 strains and wild type strains are isolated by a modified Recombinant Virus Assay (Kellam P. and Larder B., Recombinant virus assay: a rapid, phenotypic assay for assessment of drug susceptibility of human immunodeficiency virus type 1 isolates, Antimicrobial Agents and Chemotherapy, 38:23-30, 1994). Ten million MT4 T-cells (maintained in RPMI containing 10% fetal bovine serum, split 1:5 every 5 to 6 days) are co-transfected with EcoRI/HindIII digested mutant RT plasmid and Bst EII-digested HIV-1HXB2ΔRT DNA in the presence of DMRIE-C transfection reagent (Gibco) according to supplier's recommended protocol. Each mutant RT coding sequence is crossed into the RT-deleted HIV-1 viral DNA backbone by in vivo homologous recombination. Transfected cell cultures are expanded and monitored until syncitia formation and CPE are extensive. Virus is harvested by clear spin of the culture supernatants, filtration of the supernatants through a 0.45 micron membrane and frozen at −80° C. as primary stocks. Recombinant progeny virus is sequenced in the RT region to confirm the mutant genotype. Some virus stocks require further expansion by infection of MT4 cells, harvested as above and stored as frozen aliquots. All stocks are titered in HeLa MAGI cells for assay.
(§5) HIV-1 virus stocks are titered in the HeLa-CD4-LTR-β-gal assay system to establish the appropriate infecting dose. The endpoint for this assay is relative light units (RLUs), and titer is recorded as RLUs/ml. Virus stocks are diluted (serial 1:2) into DMEM containing 10% FBS plus 25 ug/ml DEAE-dextran and assayed as described in the “Experimental Protocol” section below without test compound.
(§6) • 1. Seed 96-well plate(s) (Costar #3904) with HeLa-CD4-LTR-β-gal @ 3×10^3 cells per well in 100 ul DMEM containing 10% FBS. Incubate @ 37° C., 5% CO2 overnight. Day 2 • 1. Thaw virus stock in a water bath (room temperature) and dilute into DMEM+10% FBS+25 ug/ml DEAE-dextran to an infectious dose of approximately 10 million RLU/ml. The dilution of virus will vary depending on the titer of the stock (see “Titering of virus stocks” above). • 2. Remove all of the media from every well with an 8 or 12-channel manifold aspirator. Work with one plate at a time to prevent drying of the HeLa-CD4-LTR-β-gal monolayer. Add 35 ul (approximately 350,000 total RLUs) of diluted virus to each well. […]

In a further assay the test system is HIV-1 Y181C RT mutant.
From the text: as §1, §2, §3, §4, §5, §6

A further assay concerns HIV-1 V106A RT mutant.
From the text: as §1, §2, §3, §4, §5, §6

Where [1] appears, read: Human immunodeficiency virus 1, HeLa, read-out: Y181C activity level, HeLa-CD4-LTR-β-gal cells, Y181C virus.
The mark [2] stands for this setting: Human immunodeficiency virus 1, HeLa, read-out: V106A activity level, HeLa-CD4-LTR-β-gal cells, V106A virus.

Counter-ions that a name gives are not always drawn. Like-named read-outs stand apart in the source and are kept apart here.

As for `COc1ccc(C(=O)NCc2ccc(Cl)c(Oc3cc(Cl)cc(C#N)c3)c2)c(C)c1` [Example 2, N-({4-chloro-3-[(3-chloro-5-cyanophenyl)oxy]phenyl}methyl)-2-methyl-4-(methyloxy)benzamide], the IC50 in the assay on HIV-1 K103N RT mutant, with HIV-1 Y181C RT mutant (setting [1]) and with HIV-1 V106A RT mutant (setting [2]) was above 1000 nM in each case.
As to `COc1ccc2c(C(=O)NCc3ccc(Cl)c(Oc4cc(Cl)cc(C#N)c4)c3)c[nH]c2c1` [Example 3, N-({4-chloro-3-[(3-chloro-5-cyanophenyl)oxy]phenyl}methyl)-6-(methyloxy)-1H-indole-3-carboxamide], the IC50 in the assay on HIV-1 K103N RT mutant, in the assay with HIV-1 Y181C RT mutant (setting [1]) and in the assay on HIV-1 V106A RT mutant (setting [2]) was above 1000 nM in each case.
Take `N#Cc1cc(Cl)cc(Oc2cc(CNC(=O)c3ccc(S(N)(=O)=O)cc3Cl)ccc2Cl)c1` [Example 4, 4-(aminosulfonyl)-2-chloro-N-({4-chloro-3-[(3-chloro-5-cyanophenyl)oxy]phenyl}methyl)benzamide trifluoroacetate]: the results for the IC50 with HIV-1 K103N RT mutant, with HIV-1 Y181C RT mutant (setting [1]) and in the assay on HIV-1 V106A RT mutant (setting [2]) were 10 to 1000 nM, above 1000 nM and above 1000 nM, respectively.
Regarding `N#Cc1cc(Cl)cc(Oc2cc(CNC(=O)c3ccc(Cl)c(S(N)(=O)=O)c3)ccc2Cl)c1` [Example 5, 3-(aminosulfonyl)-4-chloro-N-({4-chloro-3-[(3-chloro-5-cyanophenyl)oxy]phenyl}methyl)benzamide trifluoroacetate], the IC50 in the assay on HIV-1 K103N RT mutant, in the assay on HIV-1 Y181C RT mutant (setting [1]) and with HIV-1 V106A RT mutant (setting [2]) was above 1000 nM in each case.
For the molecule `COc1ccc(C(=O)NCc2ccc(Cl)c(Oc3cc(Cl)cc(C#N)c3)c2)c(OC)c1` [Example 6, N-({4-chloro-3-[(3-chloro-5-cyanophenyl)oxy]phenyl}methyl)-2,4-bis(methyloxy)benzamide], the IC50 in the assay with HIV-1 K103N RT mutant, with HIV-1 Y181C RT mutant (setting [1]) and in the assay with HIV-1 V106A RT mutant (setting [2]) was above 1000 nM each time.
In the case of `COc1ccc2cc(C(=O)NCc3ccc(Cl)c(Oc4cc(Cl)cc(C#N)c4)c3)[nH]c2c1` [Example 7, N-({4-chloro-3-[(3-chloro-5-cyanophenyl)oxy]phenyl}methyl)-6-(methyloxy)-1H-indole-2-carboxamide], the IC50 with HIV-1 K103N RT mutant, in the assay with HIV-1 Y181C RT mutant (setting [1]) and in the assay with HIV-1 V106A RT mutant (setting [2]) was above 1000 nM throughout.
As for `CS(=O)(=O)c1ccc(C(=O)NCc2ccc(Cl)c(Oc3cc(Cl)cc(C#N)c3)c2)c(Cl)c1` [Example 8, 2-chloro-N-({4-chloro-3-[(3-chloro-5-cyanophenyl)oxy]phenyl}methyl)-4-(methylsulfonyl)benzamide], the IC50 in the assay on HIV-1 K103N RT mutant, with HIV-1 Y181C RT mutant (setting [1]) and in the assay with HIV-1 V106A RT mutant (setting [2]) was above 1000 nM each time.
As to `N#Cc1cc(Cl)cc(Oc2cc(CNC(=O)c3cc4cc([N+](=O)[O-])ccc4[nH]3)ccc2Cl)c1` [Example 9, N-({4-chloro-3-[(3-chloro-5-cyanophenyl)oxy]phenyl}methyl)-5-nitro-1H-indole-2-carboxamide], the IC50 with HIV-1 K103N RT mutant, in the assay with HIV-1 Y181C RT mutant (setting [1]) and in the assay with HIV-1 V106A RT mutant (setting [2]) was above 1000 nM throughout.
For the molecule `COc1ccc2[nH]c(C(=O)NCc3ccc(Cl)c(Oc4cc(Cl)cc(C#N)c4)c3)cc2c1` [Example 10, N-({4-chloro-3-[(3-chloro-5-cyanophenyl)oxy]phenyl}methyl)-5-(methyloxy)-1H-indole-2-carboxamide], the IC50 in the assay on HIV-1 K103N RT mutant, in the assay with HIV-1 Y181C RT mutant (setting [1]) and in the assay with HIV-1 V106A RT mutant (setting [2]) was above 1000 nM each time.
With `COC(=O)c1ccc(C(=O)NCc2ccc(Cl)c(Oc3cc(Cl)cc(C#N)c3)c2)cc1` [Example 11, Methyl 4-{[({4-chloro-3-[(3-chloro-5-cyanophenyl)oxy]phenyl}methyl)amino]carbonyl}benzoate], the IC50 in the assay on HIV-1 K103N RT mutant, in the assay on HIV-1 Y181C RT mutant (setting [1]) and with HIV-1 V106A RT mutant (setting [2]) was above 1000 nM throughout.
As to `N#Cc1cc(Cl)cc(Oc2c(Cl)ccc(CNC(=O)c3ccc(S(N)(=O)=O)cc3Cl)c2F)c1` [Example 14, 4-(aminosulfonyl)-2-chloro-N-({4-chloro-3-[(3-chloro-5-cyanophenyl)oxy]-2-fluorophenyl}methyl)benzamide], the IC50 with HIV-1 K103N RT mutant, in the assay on HIV-1 Y181C RT mutant (setting [1]) and in the assay on HIV-1 V106A RT mutant (setting [2]) was 10 to 1000 nM each time.
For the molecule `COC(=O)c1ccc(C(=O)NCc2ccc(Cl)c(Oc3cc(Cl)cc(C#N)c3)c2F)cc1` [Example 15, Methyl 4-{[({4-chloro-3-[(3-chloro-5-cyanophenyl)oxy]-2-fluorophenyl}methyl)amino]carbonyl}benzoate], the IC50 with HIV-1 K103N RT mutant is 10 to 1000 nM; with HIV-1 Y181C RT mutant (setting [1]) it was above 1000 nM; with HIV-1 V106A RT mutant (setting [2]) it was above 1000 nM.
As for `CS(=O)(=O)c1ccc(C(=O)NCc2ccc(Cl)c(Oc3cc(Cl)cc(C#N)c3)c2F)c(Cl)c1` [Example 16, 2-chloro-N-({4-chloro-3-[(3-chloro-5-cyanophenyl)oxy]-2-fluorophenyl}methyl)-4-(methylsulfonyl)benzamide], the IC50 with HIV-1 K103N RT mutant, with HIV-1 Y181C RT mutant (setting [1]) and in the assay on HIV-1 V106A RT mutant (setting [2]) was 10 to 1000 nM in each case.
Regarding `COc1ccc(C(=O)NCc2ccc(Cl)c(Oc3cc(Cl)cc(C#N)c3)c2F)c(C)c1` [Example 17, N-({4-chloro-3-[(3-chloro-5-cyanophenyl)oxy]-2-fluorophenyl}methyl)-2-methyl-4-(methyloxy)benzamide], the IC50 in the assay with HIV-1 K103N RT mutant, in the assay on HIV-1 Y181C RT mutant (setting [1]) and in the assay on HIV-1 V106A RT mutant (setting [2]) was 10 to 1000 nM each time.
`COc1ccc2c(C(=O)NCc3ccc(Cl)c(Oc4cc(Cl)cc(C#N)c4)c3F)c[nH]c2c1` [Example 18, N-({4-chloro-3-[(3-chloro-5-cyanophenyl)oxy]-2-fluorophenyl}methyl)-6-(methyloxy)-1H-indole-3-carboxamide]: the IC50 with HIV-1 K103N RT mutant, in the assay on HIV-1 Y181C RT mutant (setting [1]) and in the assay with HIV-1 V106A RT mutant (setting [2]) was above 1000 nM each time.
`N#Cc1cc(Cl)cc(Oc2c(Cl)ccc(CNC(=O)c3cc4cc([N+](=O)[O-])ccc4[nH]3)c2F)c1` [Example 19, N-({4-chloro-3-[(3-chloro-5-cyanophenyl)oxy]-2-fluorophenyl}methyl)-5-nitro-1H-indole-2-carboxamide]: the IC50 in the assay on HIV-1 K103N RT mutant, with HIV-1 Y181C RT mutant (setting [1]) and with HIV-1 V106A RT mutant (setting [2]) was 10 to 1000 nM in each case.
Turning to `N#Cc1cc(Cl)cc(Oc2c(Cl)ccc(CNC(=O)c3cc4cc(OC[C@H]5CNCCO5)ccc4[nH]3)c2F)c1` [Example 25, N-({4-chloro-3-[(3-chloro-5-cyanophenyl)oxy]-2-fluorophenyl}methyl)-5-{[2R)-2-morpholinylmethyl]oxy}-1H-indole-2-carboxamide hydrochloride], the IC50 in the assay with HIV-1 Y181C RT mutant (read-out: Y181C activity level, HeLa-CD4-LTR-β-gal cells, Y181C virus, hydrochloride) was below 10 nM.
For `N#Cc1cc(Cl)cc(Oc2c(Cl)ccc(CNC(=O)c3ccc[nH]3)c2F)c1` [Example 58, N-({4-chloro-3-[(3-chloro-5-cyanophenyl)oxy]-2-fluorophenyl}methyl)-1H-pyrrole-2-carboxamide trifluoroacetate], in the assay on HIV-1 V106A RT mutant (read-out: V106A activity level, HeLa-CD4-LTR-β-gal cells, V106A virus, trifluoroacetate), the IC50 is below 10 nM.
Take `N#Cc1cc(Cl)cc(Oc2c(Cl)ccc(CNC(=O)c3ncc[nH]3)c2F)c1` [Example 60, N-({4-chloro-3-[(3-chloro-5-cyanophenyl)oxy]-2-fluorophenyl}methyl)-1H-imidazole-2-carboxamide]: in the assay on HIV-1 V106A RT mutant (read-out: V106A activity level, HeLa-CD4-LTR-β-gal cells, V106A virus), the IC50 lay within 10 to 1000 nM.
